{"source": "paper PMC4336329", "about": "(PLoS ONE, 2015)", "note": "Hit rate of the full screen: of about 310,000 compounds, about 14,000 (4.5%) showed an effect of 50% or more. The effect is printed as a negative number. This is one part of the list.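 Also: peak tail current of the secondary pulse compared with the same well before compound.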"}
{"target": "human ether-à-go-go-related gene (hERG) potassium channel (human, UniProt Q12809)", "sequence (Q12809 whole entry, looked up)": "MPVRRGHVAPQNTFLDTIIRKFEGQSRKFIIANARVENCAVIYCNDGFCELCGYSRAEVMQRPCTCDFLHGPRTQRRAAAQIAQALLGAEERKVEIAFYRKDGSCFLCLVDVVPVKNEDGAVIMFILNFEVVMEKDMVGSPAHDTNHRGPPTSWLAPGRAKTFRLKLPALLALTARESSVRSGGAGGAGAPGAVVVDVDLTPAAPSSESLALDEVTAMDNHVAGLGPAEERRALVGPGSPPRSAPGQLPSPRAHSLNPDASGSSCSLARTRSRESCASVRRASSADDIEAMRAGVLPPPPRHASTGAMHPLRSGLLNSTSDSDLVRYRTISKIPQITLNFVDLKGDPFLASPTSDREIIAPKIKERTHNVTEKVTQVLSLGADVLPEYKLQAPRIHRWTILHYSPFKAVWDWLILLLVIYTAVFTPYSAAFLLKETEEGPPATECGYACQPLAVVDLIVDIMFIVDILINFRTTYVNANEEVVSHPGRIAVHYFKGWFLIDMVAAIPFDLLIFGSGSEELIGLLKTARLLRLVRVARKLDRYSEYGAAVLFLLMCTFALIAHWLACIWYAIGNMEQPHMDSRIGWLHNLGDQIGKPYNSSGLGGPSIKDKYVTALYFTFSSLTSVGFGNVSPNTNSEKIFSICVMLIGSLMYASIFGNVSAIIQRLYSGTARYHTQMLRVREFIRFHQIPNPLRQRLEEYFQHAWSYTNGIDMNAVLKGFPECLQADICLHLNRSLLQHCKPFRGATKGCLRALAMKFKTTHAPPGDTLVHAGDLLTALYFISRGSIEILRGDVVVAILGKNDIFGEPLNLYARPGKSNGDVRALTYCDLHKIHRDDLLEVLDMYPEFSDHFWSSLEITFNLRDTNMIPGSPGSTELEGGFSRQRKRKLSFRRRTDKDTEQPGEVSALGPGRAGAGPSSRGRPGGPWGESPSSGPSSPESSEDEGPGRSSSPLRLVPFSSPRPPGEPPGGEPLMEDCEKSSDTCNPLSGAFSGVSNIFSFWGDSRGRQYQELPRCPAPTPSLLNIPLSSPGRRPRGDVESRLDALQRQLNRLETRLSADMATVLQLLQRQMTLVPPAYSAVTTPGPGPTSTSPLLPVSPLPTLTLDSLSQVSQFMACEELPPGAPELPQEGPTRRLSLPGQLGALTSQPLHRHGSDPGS", "test": "primary screen, population patch clamp on CHO cells stably expressing hERG", "units": {"hERG current change (%, negative = inhibition) at 10uM": "%"}}
{"smiles": "Cl.OCc1cnc[nH]1", "hERG current change (%, negative = inhibition) at 10uM": 13.2}
{"smiles": "COc1ccc(NC(=S)N2CCC(N(C)CCN3CCOCC3)CC2)cc1Cl", "hERG current change (%, negative = inhibition) at 10uM": -26.8}
{"smiles": "COc1cccc(-c2noc(C3CCCN(C(=O)c4cccc(F)c4)C3)n2)c1", "note": "(stereo not shown)", "hERG current change (%, negative = inhibition) at 10uM": 0.0519}
{"smiles": "CCN(CC)S(=O)(=O)c1cccc(NC(=O)CC2CCCC2)c1", "hERG current change (%, negative = inhibition) at 10uM": 2.44}
{"smiles": "COc1ccc(OC)c(S(=O)(=O)NCC(=O)NC2CCCCCC2)c1", "hERG current change (%, negative = inhibition) at 10uM": 6.71}
{"smiles": "Cc1nc2ccccc2nc1CN1CCC(CO)(CC2CCCCO2)CC1", "note": "(stereo not shown)", "hERG current change (%, negative = inhibition) at 10uM": -18.9}
{"smiles": "CCCNC(=O)c1c(N)n(Cc2ccc3c(c2)OCO3)c2nc3ccccc3nc12", "hERG current change (%, negative = inhibition) at 10uM": -1.61}
{"smiles": "CC(C)CN(CC(C)C)S(=O)(=O)c1cc([N+](=O)[O-])ccc1N1CCCCCC1", "hERG current change (%, negative = inhibition) at 10uM": 12.9}
{"smiles": "CC(C)c1ccc(NS(=O)(=O)c2ccc3c(c2)oc(=O)n3C)cc1", "hERG current change (%, negative = inhibition) at 10uM": 26.2}
{"smiles": "CCN1C(=O)CC(Sc2ccccc2N)C1=O", "note": "(stereo not shown)", "hERG current change (%, negative = inhibition) at 10uM": 16.5}
{"smiles": "COc1ccc(C2NC3=C(CCC3)C3(C#N)C4(N=C(N)C23C#N)OCCO4)cc1", "note": "(stereo not shown)", "hERG current change (%, negative = inhibition) at 10uM": 0.97}
{"smiles": "O=C(NCCC1CCCCN1S(=O)(=O)c1ccc(F)cc1)C(=O)Nc1ccccc1F", "note": "(stereo not shown)", "hERG current change (%, negative = inhibition) at 10uM": 20.9}
{"smiles": "COC(=O)c1cc(O)cc(OC)c1Oc1cc(C)cc(O)c1C(=O)O", "hERG current change (%, negative = inhibition) at 10uM": 13.8}
{"smiles": "COc1ccc(S(=O)(=O)N2CCOCC2)cc1NC(=O)c1sccc1C", "hERG current change (%, negative = inhibition) at 10uM": -3.22}
{"smiles": "COc1ccc(S(=O)(=O)N2CCCC(C(=O)NCc3ccccc3)C2)cc1", "note": "(stereo not shown)", "hERG current change (%, negative = inhibition) at 10uM": 23.7}
{"smiles": "Cc1cc(S(=O)(=O)N(Cc2cccs2)Cc2ccccc2F)ccc1-n1cnnn1", "hERG current change (%, negative = inhibition) at 10uM": 5.72}
{"smiles": "O=C(Nc1ccc(Cl)cc1C(=O)O)c1ccc2c(c1)C(=O)N(Cc1ccco1)C2=O", "hERG current change (%, negative = inhibition) at 10uM": 16.7}
{"smiles": "S=C(Nc1cccc(Cl)c1Cl)N1CCC2(CC1)OCCO2", "hERG current change (%, negative = inhibition) at 10uM": 17.9}
{"smiles": "COc1ccc(Cl)cc1NC(=O)COC(=O)C1COc2ccccc2O1", "note": "(stereo not shown)", "hERG current change (%, negative = inhibition) at 10uM": 1.85}
{"smiles": "Cc1c(CN2CCC(CO)(Cc3ccccc3)CC2)c2ccccc2n1C", "hERG current change (%, negative = inhibition) at 10uM": -37.8}
{"smiles": "O=C(CSc1nnc(N2CCOCC2)n1-c1cccc(F)c1)N1CCN(c2ccccn2)CC1", "hERG current change (%, negative = inhibition) at 10uM": 1.21}
{"smiles": "Nc1cccc(-c2nc3ccccc3s2)c1", "hERG current change (%, negative = inhibition) at 10uM": -1.67}
{"smiles": "Cc1ccc2nc(SCC(=O)Nc3ccc(Br)cc3)nc(=O)n2c1", "hERG current change (%, negative = inhibition) at 10uM": -4.8}
{"smiles": "Cc1ccc(NC(=O)Nc2cnc3ccccc3c2)cc1", "hERG current change (%, negative = inhibition) at 10uM": 7.04}
{"smiles": "COc1cc(OC)cc(N(C(=O)CNC(=O)c2ccco2)C(C(=O)NCC2CCCO2)c2ccccc2)c1", "note": "(stereo not shown)", "hERG current change (%, negative = inhibition) at 10uM": 5.77}
